# Measurements: the supplement of paper PMC10037445
# Whole data set: some 2,900 compounds, median “NF-kB SEAP reporter activity, fold change vs agonist alone” near 0.99, cut for the highest 2% near 2.6. The list shows a part of the results.
# Key:
# [1] = tested on: RAW-Dual; assay: NF-kB SEAP reporter activity, fold change vs agonist alone; higher = enhanced NF-kB activity
# Procedure, shortened: (§1)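 Reporter activity is given as fold change relative to agonist-alone wells. To measure it, 50 nL of library stock was pin-tooled onto RAW-Dual macrophages (50,000 cells/well, DMEM, 384-well plates), a PRR agonist followed 1 h later, and cells stayed at 37 °C, 5% CO2. Twenty hours on, supernatant was assayed for IRF (QuantiLuc luminescence) and NF-κB (QuantiBlue, 620 nm absorbance), and wells under 70% of agonist-control IncuCyte confluency in both mask sets were marked cytotoxic.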
# [2] = tested on: RAW-Dual; assay: NF-kB SEAP reporter activity, fold change vs agonist alone; cytotoxicity flag (confluency mask): not cytotoxic; higher = enhanced NF-kB activity
# Procedure, shortened: as §1
# [3] = tested on: RAW-Dual; assay: NF-kB SEAP reporter activity, fold change vs agonist alone; cytotoxicity flag (confluency mask): cytotoxic (confluency <70% of control); higher = enhanced NF-kB activity
# Procedure, shortened: as §1
# [4] = library stock concentration (final ~1000-fold dilution): 10 mM, cytotoxicity flag (confluency mask): not cytotoxic, agonist: Imiquimod (TLR7) […]
# [5] = library stock concentration (final ~1000-fold dilution): 10 mM, cytotoxicity flag (confluency mask): not cytotoxic, agonist: MPLA (TLR4) […]
# [6] = agonist: ODN 1826 (TLR9) 0.5 ug/mL
# [7] = agonist: Pam2CSK4 (TLR2/6) 0.1 ug/mL
# [8] = agonist: Pam3CSK4 (TLR2/1) 0.1 ug/mL
smiles,measurement,setting,value
CCCCCCc1ccc(O)cc1O,NF-kB SEAP reporter activity,[1]; [4],1.11
same,NF-kB SEAP reporter activity,[1]; [5],0.77
CCCCCCc1ccc(O)cc1O (library stock concentration (final ~1000-fold dilution): 10 mM),NF-kB SEAP reporter activity,[2]; agonist: LPS (TLR4) 0.1 ug/mL,0.991
same,NF-kB SEAP reporter activity,[2]; [6],0.654
same,NF-kB SEAP reporter activity,[2]; [7],0.877
same,NF-kB SEAP reporter activity,[2]; [8],0.866
CN(C)Cc1ccc(-c2nc3cccc4c3n2CCNC4=O)cc1,NF-kB SEAP reporter activity,[1]; [4],1.12
same,NF-kB SEAP reporter activity,[1]; [5],0.857
CN(C)Cc1ccc(-c2nc3cccc4c3n2CCNC4=O)cc1 (library stock concentration (final ~1000-fold dilution): 10 mM),NF-kB SEAP reporter activity,[2]; agonist: LPS (TLR4) 0.1 ug/mL,0.831
same,NF-kB SEAP reporter activity,[2]; [6],1.15
same,NF-kB SEAP reporter activity,[2]; [7],1.28
same,NF-kB SEAP reporter activity,[2]; [8],1.1
CC1(C)NC(=O)N(c2ccc([N+](=O)[O-])c(C(F)(F)F)c2)C1=O (library stock concentration (final ~1000-fold dilution): 10 mM),NF-kB SEAP reporter activity,[2]; agonist: LPS (TLR4) 0.1 ug/mL,0.916
same,NF-kB SEAP reporter activity,[2]; [6],1.05
same,NF-kB SEAP reporter activity,[2]; [7],0.946
same,NF-kB SEAP reporter activity,[2]; [8],1.17
CC1(C)NC(=O)N(c2ccc([N+](=O)[O-])c(C(F)(F)F)c2)C1=O,NF-kB SEAP reporter activity,[1]; [5],1.05
COc1ccc(C(=O)C2CCN(CC(=O)N(Cc3nc4c(c(=O)[nH]3)COCC4)CC3CC3)CC2)cc1 (library stock concentration (final ~1000-fold dilution): 10 mM),NF-kB SEAP reporter activity,[2]; agonist: LPS (TLR4) 0.1 ug/mL,1.3
same,NF-kB SEAP reporter activity,[2]; [6],1.32
same,NF-kB SEAP reporter activity,[2]; [7],1.09
same,NF-kB SEAP reporter activity,[2]; [8],1.88
COc1ccc(C(=O)C2CCN(CC(=O)N(Cc3nc4c(c(=O)[nH]3)COCC4)CC3CC3)CC2)cc1,NF-kB SEAP reporter activity,[1]; [4],1.02
same,NF-kB SEAP reporter activity,[1]; [5],1.31
CCCCc1nc(C)c(CC(=S)N(C)C)c(=O)n1Cc1ccc(-c2ccccc2-c2nnn[nH]2)cc1 (library stock concentration (final ~1000-fold dilution): 10 mM),NF-kB SEAP reporter activity,[2]; agonist: LPS (TLR4) 0.1 ug/mL,1.14
same,NF-kB SEAP reporter activity,[2]; [6],1
same,NF-kB SEAP reporter activity,[2]; [7],0.982
same,NF-kB SEAP reporter activity,[2]; [8],0.919
CCCCc1nc(C)c(CC(=S)N(C)C)c(=O)n1Cc1ccc(-c2ccccc2-c2nnn[nH]2)cc1,NF-kB SEAP reporter activity,[1]; [5],1.01
COc1ccc(CN2CCN(C(c3ccc(F)cc3)c3ccc(F)cc3)CC2)c(OC)c1OC.Cl.Cl,NF-kB SEAP reporter activity,[1]; [4],1.67
same,NF-kB SEAP reporter activity,[1]; [5],1.31
COc1ccc(CN2CCN(C(c3ccc(F)cc3)c3ccc(F)cc3)CC2)c(OC)c1OC.Cl.Cl (library stock concentration (final ~1000-fold dilution): 10 mM),NF-kB SEAP reporter activity,[2]; agonist: LPS (TLR4) 0.1 ug/mL,1.11
same,NF-kB SEAP reporter activity,[2]; [6],1.14
same,NF-kB SEAP reporter activity,[2]; [7],0.563
same,NF-kB SEAP reporter activity,[2]; [8],0.468
Cc1ccc2c(c1)c1c(n2CCc2ccc(C)nc2)CCN(C)C1.Cl.Cl (library stock concentration (final ~1000-fold dilution): 10 mM),NF-kB SEAP reporter activity,[2]; agonist: LPS (TLR4) 0.1 ug/mL,0.836
same,NF-kB SEAP reporter activity,[2]; [6],0.273
same,NF-kB SEAP reporter activity,[2]; [7],0.811
same,NF-kB SEAP reporter activity,[2]; [8],0.864
Cc1ccc2c(c1)c1c(n2CCc2ccc(C)nc2)CCN(C)C1.Cl.Cl,NF-kB SEAP reporter activity,[1]; [4],0.926
same,NF-kB SEAP reporter activity,[1]; [5],0.973
COc1cc(OC)cc(-c2cc3cnc(N)nc3nc2NC(=O)NC(C)(C)C)c1 (library stock concentration (final ~1000-fold dilution): 10 mM),NF-kB SEAP reporter activity,[2]; agonist: LPS (TLR4) 0.1 ug/mL,5.36
same,NF-kB SEAP reporter activity,[2]; [6],1.02
same,NF-kB SEAP reporter activity,[2]; [7],0.578
same,NF-kB SEAP reporter activity,[2]; [8],0.747
COc1cc(OC)cc(-c2cc3cnc(N)nc3nc2NC(=O)NC(C)(C)C)c1,NF-kB SEAP reporter activity,[1]; [4],0.989
same,NF-kB SEAP reporter activity,[1]; [5],1.1
Nc1ncnc2c1c(-c1cnc3[nH]ccc3c1)nn2C1CCCC1 (library stock concentration (final ~1000-fold dilution): 10 mM),NF-kB SEAP reporter activity,[2]; agonist: LPS (TLR4) 0.1 ug/mL,1.19
same,NF-kB SEAP reporter activity,[2]; [6],0.991
same,NF-kB SEAP reporter activity,[2]; [7],0.736
same,NF-kB SEAP reporter activity,[2]; [8],1.11
Nc1ncnc2c1c(-c1cnc3[nH]ccc3c1)nn2C1CCCC1,NF-kB SEAP reporter activity,[1]; [4],0.979
same,NF-kB SEAP reporter activity,[1]; [5],0.929
COc1ccc(-c2cc3c(C)nc(N)nc3n(C3CCC(OCCO)CC3)c2=O)cn1 (stereo not given),NF-kB SEAP reporter activity,"[1]; library stock concentration (final ~1000-fold dilution): 10 mM, cytotoxicity flag (confluency mask): cytotoxic (confluency <70% of control), agonist: Imiquimod (TLR7) […]",2.29
same,NF-kB SEAP reporter activity,"[1]; library stock concentration (final ~1000-fold dilution): 10 mM, cytotoxicity flag (confluency mask): cytotoxic (confluency <70% of control), agonist: MPLA (TLR4) […]",1.89
COc1ccc(-c2cc3c(C)nc(N)nc3n(C3CCC(OCCO)CC3)c2=O)cn1 (stereo not given) (library stock concentration (final ~1000-fold dilution): 10 mM),NF-kB SEAP reporter activity,[3]; agonist: LPS (TLR4) 0.1 ug/mL,2.24
same,NF-kB SEAP reporter activity,[3]; [6],2.5
same,NF-kB SEAP reporter activity,[3]; [7],0.759
same,NF-kB SEAP reporter activity,[3]; [8],1.28
Cn1cc(-c2cnn3c(N)c(Br)c(C4CCCNC4)nc23)cn1 (stereo not given) (library stock concentration (final ~1000-fold dilution): 2 mM),NF-kB SEAP reporter activity,[2]; agonist: LPS (TLR4) 0.1 ug/mL,1.31
same,NF-kB SEAP reporter activity,[2]; [6],1.04
same,NF-kB SEAP reporter activity,[2]; [7],1.04
same,NF-kB SEAP reporter activity,[2]; [8],1.19
Cn1cc(-c2cnn3c(N)c(Br)c(C4CCCNC4)nc23)cn1 (stereo not given),NF-kB SEAP reporter activity,"[1]; library stock concentration (final ~1000-fold dilution): 2 mM, cytotoxicity flag (confluency mask): not cytotoxic, agonist: Imiquimod (TLR7) […]",1.09
same,NF-kB SEAP reporter activity,"[1]; library stock concentration (final ~1000-fold dilution): 2 mM, cytotoxicity flag (confluency mask): not cytotoxic, agonist: MPLA (TLR4) […]",1.35
Cc1coc2c1C(=O)C(=O)c1c-2ccc2c(C)cccc12,NF-kB SEAP reporter activity,[1]; [4],0.814
same,NF-kB SEAP reporter activity,[1]; [5],0.87
Cc1coc2c1C(=O)C(=O)c1c-2ccc2c(C)cccc12 (library stock concentration (final ~1000-fold dilution): 10 mM),NF-kB SEAP reporter activity,[2]; agonist: LPS (TLR4) 0.1 ug/mL,0.723
same,NF-kB SEAP reporter activity,[2]; [6],0.793
same,NF-kB SEAP reporter activity,[2]; [7],0.955
same,NF-kB SEAP reporter activity,[2]; [8],0.996
CCC(C)SSc1ncc[nH]1 (stereo not given),NF-kB SEAP reporter activity,[1]; [4],1.51
same,NF-kB SEAP reporter activity,[1]; [5],1.85
CCC(C)SSc1ncc[nH]1 (stereo not given) (library stock concentration (final ~1000-fold dilution): 10 mM),NF-kB SEAP reporter activity,[2]; agonist: LPS (TLR4) 0.1 ug/mL,4.74
same,NF-kB SEAP reporter activity,[2]; [6],2.67
same,NF-kB SEAP reporter activity,[2]; [7],1.44
same,NF-kB SEAP reporter activity,[2]; [8],2.7
COc1cc(Nc2nc3ccccc3nc2NS(=O)(=O)c2ccc(NC(=O)c3ccc(C)c(OC)c3)cc2)cc(OC)c1 (library stock concentration (final ~1000-fold dilution): 10 mM),NF-kB SEAP reporter activity,[2]; agonist: LPS (TLR4) 0.1 ug/mL,2.08
same,NF-kB SEAP reporter activity,[2]; [6],1.04
same,NF-kB SEAP reporter activity,[2]; [7],0.51
same,NF-kB SEAP reporter activity,[2]; [8],0.561
